From PMC4336329 (PLoS ONE, 2015)
In all, about 310,000 compounds went through this assay and about 14,000 (4.5%) showed an effect of 50% or more. Effects have a minus sign here. Some of the results follow.

These compounds were tested against human ether-à-go-go-related gene (hERG) potassium channel (human, UniProt Q12809) (assay: primary screen, population patch clamp on CHO cells stably expressing hERG).
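Further: peak tail current of the secondary pulse compared with the same well before compound.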

Sequence of human ether-à-go-go-related gene (hERG) potassium channel (Q12809 whole entry, looked up): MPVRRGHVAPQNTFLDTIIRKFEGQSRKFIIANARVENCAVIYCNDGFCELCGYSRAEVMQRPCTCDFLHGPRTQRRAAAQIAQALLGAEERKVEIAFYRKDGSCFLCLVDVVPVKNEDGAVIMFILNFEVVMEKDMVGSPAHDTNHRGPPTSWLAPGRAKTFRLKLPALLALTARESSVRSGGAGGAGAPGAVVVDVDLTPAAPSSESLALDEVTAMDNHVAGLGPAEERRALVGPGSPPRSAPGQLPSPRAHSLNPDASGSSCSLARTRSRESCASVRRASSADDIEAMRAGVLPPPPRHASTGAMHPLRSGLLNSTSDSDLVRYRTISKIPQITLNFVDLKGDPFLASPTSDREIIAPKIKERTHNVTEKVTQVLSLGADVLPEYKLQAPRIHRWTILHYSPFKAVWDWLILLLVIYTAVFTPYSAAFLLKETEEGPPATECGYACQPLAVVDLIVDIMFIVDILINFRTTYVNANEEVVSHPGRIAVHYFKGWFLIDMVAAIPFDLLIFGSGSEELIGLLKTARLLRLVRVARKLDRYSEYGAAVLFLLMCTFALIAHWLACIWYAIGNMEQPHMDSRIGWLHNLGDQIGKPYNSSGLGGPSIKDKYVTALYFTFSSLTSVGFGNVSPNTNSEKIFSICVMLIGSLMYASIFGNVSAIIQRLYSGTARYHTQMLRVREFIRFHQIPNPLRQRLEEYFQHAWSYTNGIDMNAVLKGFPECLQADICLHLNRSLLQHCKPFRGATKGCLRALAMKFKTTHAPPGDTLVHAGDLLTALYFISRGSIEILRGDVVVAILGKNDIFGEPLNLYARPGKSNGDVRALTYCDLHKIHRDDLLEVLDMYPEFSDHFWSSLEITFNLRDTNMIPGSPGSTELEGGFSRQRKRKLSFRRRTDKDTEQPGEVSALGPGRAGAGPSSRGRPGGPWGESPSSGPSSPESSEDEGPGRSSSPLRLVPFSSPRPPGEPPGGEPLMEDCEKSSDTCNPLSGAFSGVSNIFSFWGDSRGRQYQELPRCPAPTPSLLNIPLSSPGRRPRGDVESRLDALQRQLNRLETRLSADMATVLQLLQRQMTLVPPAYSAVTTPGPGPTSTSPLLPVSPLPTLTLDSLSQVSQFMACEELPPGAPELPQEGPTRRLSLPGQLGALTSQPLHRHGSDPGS

Compound | hERG current change (%, negative = inhibition) at 10uM [%]
CCOc1cc2[nH]c(=S)n(Cc3ccc(C(=O)NCCN(CC)CC)cc3)c(=O)c2cc1OCC | 9.79
Cc1c(NC(=O)c2ccc(CC(C)C)o2)c(=O)n(-c2ccccc2)n1C | 5.35
CN1Cc2cccc3c2C(Cc2ccccc2S3)C1.O=C(O)/C=C\C(=O)O (stereo not shown) | -36.6
NC(=O)CC(NC(=O)Cc1ccc(Br)cc1)c1ccc(N2CCC(N3CCCC3)CC2)c([N+](=O)[O-])c1 (stereo not shown) | 15.8
Cn1cc(Br)c(-c2cccc(NC(=O)CCC(=O)O)c2)n1 | 3.43
CC(=O)Nc1ccc(NC(=O)C2CCC(N3C(=O)C4C5C=CC(C6CC56)C4C3=O)CC2)cc1 (stereo not shown) | 12.9
Cc1cccc(C)c1OCC(=O)N(Cc1ccco1)C1CCS(=O)(=O)C1 (stereo not shown) | -23.3
O=C(Oc1ccccc1)c1ccc2nccnc2c1 | -3.95
Cc1onc(-c2c(F)cccc2Cl)c1C(=O)Nc1nc2ccccc2[nH]1 | -0.407
O=C(Nc1nnc(C2CCCCC2)s1)C1CC(=O)N(c2ccccc2)C1 (stereo not shown) | 9.68
COc1cc2c(c3oc(=O)cc(CC(=O)O)c13)CCC(C)(C)O2 | -5.45
Nc1nonc1-n1nnc(C(=O)N/N=C/c2ccccc2)c1CN1CCc2ccccc21 | 12.2
Cc1nc2ncnn2c(C)c1CCC(=O)O | 26
COc1cc(NC(=O)COc2cccc3c2OC(C)(C)C3)cc(OC)c1OC | -6.09
O=S1(=O)CCN2N=C(C3CC3)SC2=N1 | 13.1
CN1C(=O)C(O)(c2nnc(-c3ccccc3)o2)c2ccccc21 (stereo not shown) | 17.4
O=C(COC(=O)c1cnccn1)NCCc1ccc(Cl)cc1Cl | 11.6
Cc1cccc(/C(N)=N/OC(=O)c2ccccc2Cl)c1 | 1.52
Cc1cccc(OCC(=O)NCCCNC(=O)c2ccccn2)c1 | 8.85
CCOc1ccccc1C(=O)OCC(=O)Nc1cc(Cl)ccc1Oc1ccccc1 | 8.18
CCOc1ccc(CN2C(=O)c3ccccc3C2=O)cc1C(=O)N1CCC(C(N)=O)CC1 | 16.8
O=C(CSc1ncccn1)NN=C1CCCCCC1 | -0.0675
Cc1cc(C(=O)CN2C(=O)C(=O)N(Cc3ccccc3)C2=O)c(C)n1CC1COc2ccccc2O1 (stereo not shown) | 4.75
COc1ccc(/C=C2\NC(=O)C(C=NCc3ccccc3)=C2O)cc1 | 3.89
Cc1coc2c1C(=O)C(=O)c1c-2ccc2c(C)cccc12 | 8.76
O=C(O)c1cccc(-c2nnn(Cc3ccccc3)n2)c1 | 1.67
COc1ccccc1C(=O)N/C(=C/c1cccc([N+](=O)[O-])c1)C(=O)Nc1cccc(C(=O)O)c1 | 13.2
COc1cc2c(cc1OC)[C@H](C)N(C(=O)COc1ccccc1)CC2 | 14.6

Compound | hERG current change (%, negative = inhibition) at 10uM [%]
COc1ccccc1/C=C/C=N/N1CCN(Cc2ccccc2)CC1 | -8.94
CC(C)C1N=C2c3ccccc3N=C(SCC(=O)c3ccc(O)c(O)c3)N2C1=O (stereo not shown) | -23.1
Cc1ccc(NS(=O)(=O)c2ccc3c(c2)n(C)c(=O)n3C)cc1 | -32.1
O=S(=O)(Nc1cccc(Cl)c1)c1ccc2oc(=S)[nH]c2c1 | 25.1
COCCNC(=O)Cn1cnc2sc(C)c(S(=O)(=O)N3CCN(c4ccccc4OC)CC3)c2c1=O | 4.02
CCNC(=O)NS(=O)(=O)c1cnccc1Nc1cccc(Cl)c1 | 25.1
CCC(CC)C(=O)Nc1nnc(S(=O)(=O)N2c3ccccc3CC2C)s1 (stereo not shown) | 2.8
Cc1cc(OCC(=O)NC2CCN(Cc3ccccc3)CC2)c2c(C)cc(=O)oc2c1 | -21.4
CCOC(=O)c1ccccc1NC1c2ccccc2C(=O)N1c1ccc(C)cn1 (stereo not shown) | -2.46
Cc1nc2ccccc2n1CC(=O)NC1CCCCCC1 | 5.61
Cc1sc(N)c(C(=O)c2ccccc2)c1C | 9.41
CCCn1c(NC(=O)c2ccccc2)nc2ccccc21 | -2.52
CCOC(=O)c1[nH]c(C)c(C(=O)Nc2ccc(C)c(F)c2)c1C | 1.5
Cc1ccc(S(=O)(=O)CC(=O)Nc2nc3ccccc3s2)cc1 | 16.9
CCOc1ccccc1CNC(=O)C1Cc2cc(S(=O)(=O)N3CCCCC3)ccc2N1C(C)=O (stereo not shown) | -17.9
COc1ccc(OC)c(-c2cc(C(=O)NCc3cccs3)no2)c1 | -9.23
Cc1sc2ncnc(OCC(=O)N3CCN(S(=O)(=O)c4ccc(Cl)cc4)CC3)c2c1C | -15
CN(Cc1nc2ccccc2[nH]1)C(=O)C1CCC(=O)N(CCc2cccc(F)c2)C1 (stereo not shown) | 4.23
O=C(O)/C=C/C(=O)O.c1ccc(CCC2=NCCn3cccc32)cc1 | -23.6
C=CCN1C(=O)CSc2ccc(C(=O)NC(C)c3ccccc3)cc21 (stereo not shown) | -17.5
Cc1cc(OCCOc2cccc3cccnc23)c(C)cc1Cl | -1.89
COc1ccc2oc(=O)c(C(=O)N3CCN(c4ccc(F)cc4)CC3)cc2c1 | -27.3
COc1ccc(NC(=O)CN2CCN(CC(=O)Nc3ccc(F)cc3)CC2)cc1Cl | -80.5
c1cncc(-c2noc(-c3cccc4ccccc34)n2)c1 | 16.3
Cc1ccc(-n2cc(CN3CCC(O)(c4ccccn4)CC3)c(-c3ccc(F)cc3)n2)cc1 | -56.7
CCOc1ccc(/C=C/C(=O)CCC(=O)O)cc1 | 13.5
COc1ccccc1N(Cc1ccccc1)S(=O)(=O)c1cccc(C(=O)Nc2cccc(C)n2)c1 | -3.51
